Measurements as given in ChEMBL document CHEMBL4888484, “Replenishing the malaria drug discovery pipeline: Screening and hit evaluation of the MMV Hit Generation Library 1 (HGL1) against asexual blood stage Plasmodium falciparum ,using a nano luciferase reporter read-out” (2022).
About 540 (0.36%) of roughly 150,000 compounds showed an effect of 50% or more. The list shows a part of the results.

Test system: Plasmodium falciparum
Experiment: Primary screen in NF54 nanoGlo assay, in single point, at 2uM, 72h; a lower Z score goes with more inhibition
Format: functional, Erythrocyte
Details: timepoint 72 hour

Compound | % Inhibition [%] | Z score
O=S(=O)(c1ccsc1)N1CCC(OCCN2CCCC2)CC1 | -12 | 1.33
CCCCN1C(=O)c2c(NC(C)=O)c3cc(OC)ccc3n2C[C@@]1(C)C(=O)NC1CCCCC1 | -13 | 1.27
O=c1[nH]nc(CCn2ccnc2-c2ccc(CN3CCCC3)s2)[nH]1 | -5 | 0.72
CN(CCc1ccccc1F)[C@H]1CCN(CC(F)(F)F)C1=O | 3 | -0.44
CC(C)(C)C(=O)Nc1cnc(N2CCCCCC2)nc1 | -35 | 3.11
CCC(CC)(CN)NS(=O)(=O)c1c(F)cccc1F | 7 | -0.99
CNS(=O)(=O)[C@H]1CCCN(c2ccc3cc(Cl)cnc3n2)C1 | -14 | 2.15
Cc1ccc(-n2nc(C(=O)NCCc3ccccn3)c(=O)n(Cc3cccc(C(F)(F)F)c3)c2=O)cc1 | -19 | 1.7
CN1CCN(c2nc3c(c(Oc4ccc(F)c(F)c4)n2)CN(C(=O)c2ccc(F)cc2)CC3)CC1 | -8 | 0.92
NC(=O)CN(Cc1coc(-c2cccs2)n1)C1CCCC1 | -15 | 1.39
Cc1ccccc1CNC(=O)c1ccc(N2CCOc3ccccc32)s1 | -1 | 0.14
C[C@@H]1CN(C(=O)CCC(C)(C)C(=O)N2C[C@@H](C)O[C@@H](C)C2)C[C@H](C)O1 | -15 | 2.04
CCc1ccc(COc2ccc(-n3c(=O)cc(C(F)(F)F)n(CC)c3=O)cc2)c(O[C@@H](C)C(=O)OC)c1 | -32 | 3.75
O=C(Nc1ccc(N2CCN(c3c(F)c(F)c(F)c(F)c3F)CC2)cc1)c1cccc2ccccc12 | 1 | -0.18
Cc1nc(C(=O)N2CCCC[C@@H]2CN)c(C)s1 | -22 | 2.01
CCCn1cnnc1[C@H](C)NS(=O)(=O)CCC | -3 | 0.57
CC(C)Oc1ccc(CN2CCOC[C@H]2C(=O)O)cc1Cl | 1 | -0.16
CC(C)CC[C@@H](c1ccccc1)N(C)C(=O)c1csnn1 | 16 | -2.05
CCN(C)C1(CNS(=O)(=O)CC(C)C)CCCCC1 | -4 | 0.83
C[C@@H](Cc1cnccn1)N(C)C(=O)c1cccn1C | -12 | 2.54
CN1CCC(NS(=O)(=O)CC2CCC(F)C2)CC1=O (stereo not drawn) | -2 | 0.34

Compound | % Inhibition [%] | Z score
CC(Cc1cccs1)NC(=O)CC(N)c1ccccc1 (stereo not drawn) | 5 | -0.52
CC(C)(C)[C@H]1CCc2c(sc(NC(=O)c3ccccc3F)c2C(=O)N2CCC(C(N)=O)CC2)C1 | 5 | -0.76
CO[C@H]1[C@H](NC(=O)C(C)C)c2ccccc2C12CCN(C(=O)CCc1scnc1C)CC2 | 10 | -1.3
CCOc1nnc(CN2c3ccccc3CC[C@@H]2CCO)s1 | -4 | 0.54
O=C(Cc1ccc(S(=O)(=O)Nc2ccc(F)c(Cl)c2)s1)N1CCCC1 | 0 | -0.1
Cc1occc1C(=O)N1CCN(C(=O)c2ccccn2)[C@H]2CS(=O)(=O)C[C@H]21 | -10 | 1.33
Cc1cc(C(C)NC(C)CCS(C)(=O)=O)ccc1Br (stereo not drawn) | -9 | 0.95
CCOCCCNC(=O)C(=O)NCc1nc(C)cs1 | 2 | -0.17
O=C(O)c1nn2cc(-c3ccccc3CN3CCOCC3)cnc2c1Cl | 4 | -0.61
CC(=O)N[C@H]1CCN(C(=O)c2cc(Cl)c[nH]2)C1 | 6 | -0.76
COc1ccc2nc(-n3nc(C)c4c3NC(=O)C[C@@H]4c3cc(C)ccc3C)sc2c1 | -6 | 0.99
Cc1cnc(CNC(=O)N[C@H](C)c2cc3ccccc3o2)s1 | 12 | -1.38
C=CCCC(=O)Nc1nc(C(C)(C)C)ns1 | -47 | 5.56
O=C(O)C1(Oc2cccc(F)c2)CCN(c2ncnc3sccc23)CC1 | -12 | 2.19
Cc1nocc1NC(=O)N[C@H]1CCN(CC(F)F)C1 | 1 | -0.21
c1ccc(CN2CCN(Cc3nnc4n3CCCCC4)CC2)cc1 | -5 | 0.72
Cc1cccc2c(N(C)Cc3ccc4c(c3)OCO4)ncnc12 | 9 | -1.17
O=C(OCC#Cc1ccccc1)c1cccc(-n2cccn2)n1 | -1 | 0.1
COc1ccc(-n2c(=O)[nH]c3nc(N4CCC(C(N)=O)CC4)ncc3c2=O)cc1 | -9 | 1.36
O=C1NCCN(Cc2ccn(CC(F)(F)F)n2)c2ccccc21 | 3 | -0.4
Cc1cc(N2CCCC2)nc(CNC(=O)C(C)(C)C)n1 | 0 | 0.01

Compound | % Inhibition [%] | Z score
CN(C)S(=O)(=O)NCC(C)(C)c1ccc(C(F)(F)F)cc1 | -4 | 0.61
O=C(COc1ccc(Cl)cc1Cl)N1CCC(O)(Cn2ccnc2)CC1 | -1 | 0.12
O=C1COc2ccc(C(=O)N3CCN(c4ccccc4F)CC3)cc2N1 | 10 | -1.3
CO[C@@](C(=O)Nc1c(C)nn(CC(=O)O)c1C)(c1ccccc1)C(F)(F)F | 2 | -0.32
C[C@@H](C1CC1)n1ncc2[nH]c(-c3nccn3C)nc21 | -1 | 0.09
CCN1CCN(CC(=O)N2c3ccccc3C[C@@H]2C)CC1 | 2 | -0.34
CCNC(=O)CN1CN(c2ccccc2)C2(CCN(C(=O)Nc3ccccc3C)CC2)C1=O | -15 | 1.43
CN(C)C[C@]1(CO)CCCN(Cc2cccc3cc[nH]c23)C1 | -1 | 0.27
O=C(Nc1ccc(-c2c3ccccc3c(-c3ccc(NC(=O)c4cccc5ccccc45)cc3)c3ccccc23)cc1)c1cccc2ccccc12 | -8 | 1.08
CN1CCN(C(=O)c2cc(NC(=O)N3CC(CC4CC4)C3)ccn2)CC1 | -3 | 0.6
CCC[C@H](C)NC(=O)c1ccc(N(C)S(C)(=O)=O)c(C)c1 | -5 | 0.76
O=C(NCc1ccccc1)N(CCCN1CCCC1)C1CCOCC1 | -6 | 1.21
CC(C)(C)OC(=O)NCc1ccc(C(=O)NC2C3CCOC3C23CCC3)o1 (stereo not drawn) | -8 | 1.21
CC(C)OCCCC(=O)Nc1cnccn1 | -10 | 1.02
CCC1CN(C(=O)OCc2ccccc2)C(CC)CN1 (stereo not drawn) | -4 | 0.7
CN(C[C@H]1CCCO1)C(=O)CCc1cncs1 | -9 | 1.21
C[C@@H](C(=O)N1CCCCC1)N1CCN(Cc2ccc(CO)o2)CC1 | -14 | 1.75
Clc1ccc(CN(CCCN2CCOCC2)C2CCOCC2)cc1 | -2 | 0.23
O=C(Nc1ccc(F)cn1)[C@@H]1CCCN[C@@H]1C1CC1 | -3 | 0.55
COc1ccccc1-c1ccc(C(=O)NCCN2CCOCC2)c(N2CCC(N3CCC[C@H](CO)C3)CC2)n1 | -3 | 0.6
Cn1cnc(C(=O)N2CC[C@H](Cc3nnc(C4CCOCC4)o3)C2)c1 | 1 | -0.11

Compound | % Inhibition [%] | Z score
COC(=O)c1ccc(N2CCN(c3nc(CO)cs3)CC2)cc1 | -2 | 0.23
O=C1O[C@H](C(=O)Nc2ccc(Cl)cc2-n2cccn2)Cc2ccccc21 | -5 | 0.52
CN(Cc1ccco1)Cc1nnc(-c2ccc(Cl)cc2)o1 | -8 | 0.96
CC(C)c1nc(CCN(C)C(=O)c2cc(Cl)c[nH]2)no1 | -12 | 1.74
O=C(Cn1cnc(-c2nc(-c3ccccc3)cs2)c1)Nc1ccc(F)cc1 | -8 | 0.99
Cc1cc(C)n(Cc2cccc(F)c2)c1C(=O)NCc1cccc(C(F)(F)F)c1 | 0 | -0.02
COc1cccc(C(=O)N(Cc2cc(-c3ccc(OC)cc3OC)on2)C2CC2)c1 | 29 | -3.91
CC[C@H]1C(=O)NCCN1Cc1snc(OC)c1Br | -4 | 0.6
CCOc1nnc(CN(C)[C@H]2CCc3ccccc3C2)s1 | -13 | 2.06
CCCc1nc(Cn2ccc([C@H](C)O)n2)cs1 | -5 | 0.65
CCOC(=O)N1CCN(C(=O)c2cccc(N(C)C)c2)CC1 | -1 | 0.2
CCCc1cc(N2CCC(CCCN3CCOCC3)CC2)n2ncnc2n1 | -5 | 0.77
CCS(=O)(=O)NCCNC(=O)C(F)=C1CCC1 | -10 | 1.52
Cc1ccc(CN2C(=O)CC(c3ccc(C)cc3)CC2=O)cc1 | 4 | -0.59
O=S(=O)(CCCF)N[C@H]1CCN(c2ccc(Cl)c(F)c2)C1 | -4 | 0.5
Cc1csc([C@H](C)NC(=O)c2cn(C3CCCCC3)nn2)n1 | 1 | -0.16
Cc1ccc(NC(=O)c2ccnc(-n3cccn3)c2)cc1-c1ncco1 | -4 | 0.64
CCOC1CC(N(C)CCc2cnn(C)c2)C12CCC2 (stereo not drawn) | 22 | -3.46
CCOc1ccc(-c2nc(Cn3nnc(C(=O)NCc4ccc(OC)cc4)c3N)c(C)o2)cc1OC | -5 | 0.72
CN(C)c1nccc(N2CCO[C@@H](Cn3cccn3)C2)n1 | 24 | -2.75
CCc1ccc(O)c(C(=O)N[C@H]2CC23CCNCC3)c1 | 5 | -0.98
